115 sequences from the BET-seq Pho4 binding data (Le et al. 2018) can be followed below.

This is one part of the list. Values were computed here from the reads of four pooled replicates and scatter widely.

The test addresses T1, Pho4 (S. cerevisiae) (UniProt P07270).
T1 sequence: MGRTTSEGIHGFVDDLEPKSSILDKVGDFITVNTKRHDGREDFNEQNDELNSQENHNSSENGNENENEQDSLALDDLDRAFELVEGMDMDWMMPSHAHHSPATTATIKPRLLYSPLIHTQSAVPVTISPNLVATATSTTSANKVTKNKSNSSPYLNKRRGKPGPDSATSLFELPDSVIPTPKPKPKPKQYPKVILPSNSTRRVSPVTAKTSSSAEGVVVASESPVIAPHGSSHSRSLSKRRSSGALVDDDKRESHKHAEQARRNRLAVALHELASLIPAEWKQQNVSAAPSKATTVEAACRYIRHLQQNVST
The experiment in a line: relative binding free energy (BET-seq); higher = weaker binding. The following applies: reference: library average.
With CGTCGCACGTGATTGG, the “relative binding free energy” value is 0.1 kcal/mol.
Then AATCTCACGTGTTTGT, with 0.19 kcal/mol; and GTAGACACGTGAAGGG, with 0.18 kcal/mol; and GGGAGCACGTGGGCTG, with -0.2 kcal/mol.
The value for AGTTTCACGTGAAAGA was 0.42 kcal/mol.
Then TCTATCACGTGTTCGG, with 0.19 kcal/mol; and TATTACACGTGGAAAT, with 0.23 kcal/mol.
As for TTGGCCACGTGGAGGG, the “relative binding free energy” value is -0.09 kcal/mol.
With GTGGGCACGTGTAGAG, the “relative binding free energy” value was -0.01 kcal/mol.
The value for TGTTGCACGTGAGTTG was 0.26 kcal/mol; that for CGTGGCACGTGTCGGT was -0.1 kcal/mol; that for TTCACCACGTGGTTGT was -0.04 kcal/mol.
Regarding TTTATCACGTGGGCGG, the “relative binding free energy” value came to 0 kcal/mol.
Then GAGTGCACGTGTTGTT, with 0.02 kcal/mol; and GGTTTCACGTGAGTAC, with 0.5 kcal/mol.
The value for ATAGGCACGTGAGTCG was -0.01 kcal/mol; that for GTACTCACGTGGGGGA was 0.15 kcal/mol.
The value for TGAGTCACGTGTACTG was 0.14 kcal/mol; that for GTAGACACGTGTGGGC was 0.11 kcal/mol.
Regarding GAGATCACGTGGGCTT, the “relative binding free energy” value was determined as 0.18 kcal/mol.
Take GTGGACACGTGAGATA: the “relative binding free energy” value worked out at 0.26 kcal/mol.
As to TATAGCACGTGAGTCT, the “relative binding free energy” value is 0.15 kcal/mol.
Then TGGAGCACGTGCGTAG, with -0.1 kcal/mol.
With ATGTTCACGTGGGCTC, the “relative binding free energy” value came out at 0.17 kcal/mol.
With CGTGTCACGTGTTTGG, the “relative binding free energy” value came out at 0.01 kcal/mol.
Then GAGGGCACGTGCTGAA, with -0.07 kcal/mol.
Then CCGTTCACGTGGGTAT, with 0.14 kcal/mol; and TAAGTCACGTGCGTTT, with 0.06 kcal/mol.
The value for TGTATCACGTGGCGAT was 0.12 kcal/mol; that for AGGGGCACGTGGTACT was -0.21 kcal/mol.
GGTTGCACGTGCTGCT: the “relative binding free energy” value was -0.03 kcal/mol.
Then TTGATCACGTGCGAGT, with 0.19 kcal/mol; and ATATACACGTGGTTCT, with 0.02 kcal/mol.
The value for GTATCCACGTGTATGG was 0.04 kcal/mol; that for GTAGGCACGTGCATTG was -0.09 kcal/mol.
The value for GTGTACACGTGTTCGA was 0.08 kcal/mol; that for CTTTGCACGTGTGATT was 0.02 kcal/mol.
On to GTTAGCACGTGTTCGT, for which the “relative binding free energy” value is -0.15 kcal/mol.
The value for CCTTGCACGTGGGCGT was -0.09 kcal/mol; that for GGTGACACGTGACTTG was 0.29 kcal/mol.
The value for GTGTTCACGTGATGAT was 0.36 kcal/mol; that for GGTACCACGTGGTAAG was 0.08 kcal/mol; that for GGGTACACGTGGAGAG was 0.19 kcal/mol.
As for TGAGCCACGTGGGTTG, the “relative binding free energy” value was -0.35 kcal/mol.
The value for GGCGTCACGTGGTAAG was 0.08 kcal/mol.
In the case of GGTTGCACGTGTTCTC, the “relative binding free energy” value was found to be 0.17 kcal/mol.
The value for TTTGTCACGTGGGTCT was -0.08 kcal/mol; that for TTGTGCACGTGTAATT was 0.16 kcal/mol; that for CGCGGCACGTGGGTCG was -0.26 kcal/mol.
Then TGGATCACGTGAGATG, with 0.46 kcal/mol; and GGCGTCACGTGGTTGG, with 0.06 kcal/mol; and AGCATCACGTGCAGGG, with 0.35 kcal/mol.
CTGTGCACGTGATGTA: the “relative binding free energy” value is -0.04 kcal/mol.
In the case of GGGGACACGTGCAAGG, the “relative binding free energy” value was determined as 0.13 kcal/mol.
TAGATCACGTGGCTTT: the “relative binding free energy” value turned out to be 0.03 kcal/mol.
Then GGGTACACGTGTATCT, with -0.02 kcal/mol; and GTTGGCACGTGTGAGA, with 0.12 kcal/mol.
The value for ATGGGCACGTGCTAAG was -0.13 kcal/mol.
Then CCAAGCACGTGTGGGG, with -0.06 kcal/mol; and GCTTTCACGTGTAGTG, with 0.35 kcal/mol; and GTTATCACGTGCTCGG, with 0.11 kcal/mol.
Consider CTGTTCACGTGAGGCT, for which the “relative binding free energy” value was 0.34 kcal/mol.
The value for GTTGGCACGTGTAGAG was -0.06 kcal/mol.
CGGTCCACGTGTGTAT: the “relative binding free energy” value worked out at 0.12 kcal/mol.
The value for TGTGACACGTGTTTTC was 0.06 kcal/mol.
Then GTGGGCACGTGGGGAA, with -0.15 kcal/mol; and TCGGTCACGTGTGGAG, with 0.06 kcal/mol.
Consider TTTTACACGTGTTGCG, for which the “relative binding free energy” value came to 0.15 kcal/mol.
With ACGGTCACGTGTTAGG, the “relative binding free energy” value turned out to be 0.16 kcal/mol.
The value for TTTCTCACGTGGGCGG was 0.13 kcal/mol; that for CGTAACACGTGTATGT was -0.06 kcal/mol.
The value for TATCGCACGTGATGGT was 0.04 kcal/mol.
On to TGTCTCACGTGTATGT, for which the “relative binding free energy” value was found to be 0.23 kcal/mol.
The value for ATTGTCACGTGTTTTA was 0.16 kcal/mol.
On to GGTGACACGTGTTGAC, for which the “relative binding free energy” value is 0.22 kcal/mol.
For the sequence CGTTACACGTGAGTTT, the “relative binding free energy” value was 0.42 kcal/mol.
The value for TGTCGCACGTGTTGAG was -0.02 kcal/mol; that for AAGAGCACGTGGGAAT was -0.2 kcal/mol; that for TTGCTCACGTGGTGTG was 0.09 kcal/mol.
The value for GTATTCACGTGTTGAA was 0.08 kcal/mol.
The value for TGACGCACGTGAAGGT was 0.17 kcal/mol.
For the sequence TGGGTCACGTGAGGGC, the “relative binding free energy” value is 0.25 kcal/mol.
The value for GAGGCCACGTGGGTAG was -0.07 kcal/mol; that for CCGGACACGTGGGGTG was -0.23 kcal/mol.
Then GATGCCACGTGTAGGG, with 0.09 kcal/mol.
With AGCGGCACGTGGTGGC, the “relative binding free energy” value was -0.16 kcal/mol.
Consider ATGTTCACGTGTGGGA, for which the “relative binding free energy” value worked out at 0.28 kcal/mol.
Then TTGAACACGTGTTAGG, with 0.04 kcal/mol; and TGAACCACGTGGTTGG, with -0.2 kcal/mol.
The value for GGGGTCACGTGCAGGC was 0.16 kcal/mol; that for GGGGCCACGTGGCTTG was -0.18 kcal/mol.
Consider CATTTCACGTGTGTTT, for which the “relative binding free energy” value came out at 0.43 kcal/mol.
Then TTGAACACGTGGCTTT, with -0.06 kcal/mol; and CTAGACACGTGTGGTT, with 0.07 kcal/mol.
Then GGTAGCACGTGGCCGG, with -0.03 kcal/mol; and CGTGTCACGTGGGCTC, with -0.06 kcal/mol; and TTTTTCACGTGGGAAC, with 0.16 kcal/mol.
Then AGATGCACGTGAGGGC, with 0.27 kcal/mol; and GGTAACACGTGTGATA, with 0.16 kcal/mol; and CTTGTCACGTGTTGCT, with -0.1 kcal/mol.
Take TGATTCACGTGTAGGT: the “relative binding free energy” value turned out to be 0.28 kcal/mol.
For the sequence TGGCTCACGTGATTTG, the “relative binding free energy” value is 0.56 kcal/mol.
In the case of TGAGTCACGTGACTTT, the “relative binding free energy” value worked out at 0.23 kcal/mol.
In the case of TAGTACACGTGGATAT, the “relative binding free energy” value is -0.04 kcal/mol.
For GTGGGCACGTGTTCAA, the “relative binding free energy” value turned out to be 0.05 kcal/mol.
The value for GGTGTCACGTGAAAGC was 0.37 kcal/mol; that for AAAGCCACGTGTGGGG was -0.21 kcal/mol.
Then GGTGACACGTGAGAGA, with 0.15 kcal/mol; and ACAGGCACGTGCGAGG, with -0.07 kcal/mol.
Then TGTGTCACGTGTTTTA, with 0.08 kcal/mol; and CTGCGCACGTGGTAAG, with 0 kcal/mol; and AGCGTCACGTGGAATG, with 0.19 kcal/mol.
For GGCAGCACGTGCTGGG, the “relative binding free energy” value is -0.21 kcal/mol.
For GTAGTCACGTGTAAGT, the “relative binding free energy” value turned out to be 0.19 kcal/mol.
Turning to ATAGCCACGTGTTGGC, the “relative binding free energy” value came to 0.09 kcal/mol.
